From patent publication US20200407462A1 (MINERVA BIOTECHNOLOGIES, published 2020)

Target: T1, C-10 peptide (C-10 PSMGFR)
T1 construct: also called PSMGFR C-10
T1 peptide: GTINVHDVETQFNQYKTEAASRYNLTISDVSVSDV
Test: binding to peptides

B1: huMNC2-scFv-Fc (Fc fusion)
chain: DAAQPAEVQLVESGGGLVKPGGSLRLSCAASGFTFSGYAMSWVRQAPGKGLEWVSTISSGGTYIYYPDSVKGRFTISRDNAKNSLYLQMNSLRAEDTAVYYCARLGGDNYYEYFDVWGKGTTVTVSSGGGGSGGGGSGGGGSDIVLTQSPASLAVSPGQRATITCRASKSVSTSGYSYMHWYQQKPGQPPKLLIYLASNLESGVPARFSGSGSGTDFTLTINPVEANDTANYYCQHSRELPFTFGGGTKVEIKRT[human IgG1 Fc cut from this listing]
notes: For IHC it was biotinylated through its Fc region; also called humanized single chain form of MNC2
B1: no binding.
